Experimental data taken from the supplement of paper PMC3334620.
The full ranking holds about 33,000 sequences; the median of “E-score (-0.5 to 0.5)” is about -0.035, and the highest 2% start at about 0.35. This is one part of the list.

Molecular target: T1, Pdr3 (UniProt P33200)
T1 sequence: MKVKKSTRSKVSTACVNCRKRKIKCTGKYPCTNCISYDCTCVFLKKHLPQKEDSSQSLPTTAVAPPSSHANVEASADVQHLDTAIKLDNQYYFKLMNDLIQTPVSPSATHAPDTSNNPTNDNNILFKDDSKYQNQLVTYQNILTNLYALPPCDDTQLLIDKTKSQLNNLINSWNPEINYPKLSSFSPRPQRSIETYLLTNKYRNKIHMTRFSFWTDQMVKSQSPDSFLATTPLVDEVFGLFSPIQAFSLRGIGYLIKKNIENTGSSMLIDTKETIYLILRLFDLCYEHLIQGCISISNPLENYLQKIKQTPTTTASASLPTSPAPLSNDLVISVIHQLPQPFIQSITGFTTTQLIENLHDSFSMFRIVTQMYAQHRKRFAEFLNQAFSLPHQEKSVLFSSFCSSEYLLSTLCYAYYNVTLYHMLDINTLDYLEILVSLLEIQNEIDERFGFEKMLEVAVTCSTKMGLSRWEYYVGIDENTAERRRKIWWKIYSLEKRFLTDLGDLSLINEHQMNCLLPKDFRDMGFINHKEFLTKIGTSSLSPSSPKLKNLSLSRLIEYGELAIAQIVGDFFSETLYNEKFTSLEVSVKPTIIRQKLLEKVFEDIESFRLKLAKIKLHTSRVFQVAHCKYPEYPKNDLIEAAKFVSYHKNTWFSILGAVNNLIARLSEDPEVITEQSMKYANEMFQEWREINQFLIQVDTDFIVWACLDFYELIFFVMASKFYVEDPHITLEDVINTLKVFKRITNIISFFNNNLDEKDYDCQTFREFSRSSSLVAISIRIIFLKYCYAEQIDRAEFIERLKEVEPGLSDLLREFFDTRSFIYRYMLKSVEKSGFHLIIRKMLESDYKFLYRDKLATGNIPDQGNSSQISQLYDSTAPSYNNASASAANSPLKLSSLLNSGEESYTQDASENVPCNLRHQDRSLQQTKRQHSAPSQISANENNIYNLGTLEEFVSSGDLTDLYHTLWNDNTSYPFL
Assay: PBM E-score (8-mer binding enrichment) (E-score (-0.5 to 0.5)); higher = stronger / more preferred TF binding; most listed sequences are background and not binding sites
Details: protein concentration: 200 nM; construct: GST-full length
Protocol: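 Universal 'all 10-mer' protein binding microarrays (Agilent AMADID 015681) probed with GST-tagged S. cerevisiae TFs (full-length or DBD) made by in vitro transcription/translation (PURExpress), about 100-200 nM. Bound TF was detected with fluorescent anti-GST. Each ungapped 8-mer (which stands for itself and its reverse complement) is scored by the PBM enrichment score (E-score), a modified Wilcoxon-Mann-Whitney statistic from -0.5 to +0.5, computed with the Universal PBM Analysis Suite. Scale: above 0.35 generally sequence-specific binding.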

| Sequence | PBM E-score |
| --- | --- |
| CAACGGGA | 0.261 |
| CGACATCC | 0.168 |
| AGATTTCC | 0.254 |
| AAGGCAAA | -0.0388 |
| ACGTTCTA | -0.0866 |
| CTGGTCTA | -0.254 |
| GCCGACTA | 0.106 |
| AGTAGAAT | -0.0759 |
| CCGCATCG | 0.125 |
| TACGAGAA | -0.0853 |
| TCGCGAAA | 0.131 |
| TGAAATAA | -0.122 |
| CTAAAATC | -0.144 |
| GCTTTTAA | -0.179 |
| AACAGGAG | -0.159 |
| CGCGTGAC | 0.0246 |
| GTGGTACA | -0.188 |
| ACTAATCT | -0.0786 |
| AGGCTGGA | -0.262 |
| CATCCGCC | 0.345 |
| ACACGATC | -0.012 |
| CCGTCATC | 0.0897 |
| ATGATTCA | -0.137 |
| AGATTAGA | -0.255 |
| AAGTTCGT | -0.177 |

| Sequence | PBM E-score |
| --- | --- |
| GAGCTGCA | 0.00332 |
| ATGACCTA | -0.152 |
| CGCGCCCC | 0.236 |
| GAATACCC | 0.272 |
| CTTTATAC | 0.0268 |
| ACAAGTAA | -0.212 |
| CGCCAGAC | 0.00951 |
| CAGACTCC | -0.146 |
| GTGAGAGA | -0.0904 |
| ACGTGACC | -0.0751 |
| ACCCTGAG | -0.126 |
| ATAACTAG | -0.01 |
| GACGCACA | 0.0366 |
| CTATGATC | -0.0603 |
| ACACCTCA | -0.187 |
| ACCGGCTC | 0.122 |
| ACTCTCGG | 0.238 |
| TCCGAAAA | 0.248 |
| GAATCGGC | 0.278 |
| CAAAGACC | -0.129 |
| CACCCATA | -0.239 |
| GATGGACA | -0.0186 |
| CCAGGTTA | -0.0429 |
| GTTCAAAA | -0.0918 |
| CGATACTA | 0.13 |

| Sequence | PBM E-score |
| --- | --- |
| AGCTTCGG | 0.162 |
| ATGATTGC | 0.112 |
| CACTATCG | -0.02 |
| TGATGGCA | -0.149 |
| CTCCGCAA | 0.14 |
| AGAAGATA | 0.0757 |
| CGTTTATA | 0.0583 |
| CCATTAAA | 0.111 |
| CACTGGCC | -0.0792 |
| CCTCGAGG | 0.0706 |
| CTTCCGGC | 0.398 |
| GATAAGCA | -0.00222 |
| ACGCAGCA | -0.102 |
| AGGCACAC | -0.133 |
| CATCTGAG | -0.0983 |
| AGGGGTGC | -0.0873 |
| CACCCGGC | 0.234 |
| GTCCGGAC | 0.481 |
| CTCGCCAG | -0.0847 |
| GTTCCAAC | 0.103 |
| ACTCGCTG | 0.0455 |
| ACCTCAGG | -0.176 |
| ACCAATCG | 0.0772 |
| AGAATGAC | -0.125 |
| CAGAGGCG | -0.154 |

| Sequence | PBM E-score |
| --- | --- |
| AAGTGAAT | 0.135 |
| CAGTCTTC | -0.147 |
| TAGTTACA | -0.175 |
| GCGGACAA | 0.305 |
| AAGAGTTG | -0.0207 |
| AGTATGCA | -0.0811 |
| CACTCGAA | -0.181 |
| CTCTACCA | -0.05 |
| AGTAGTGA | -0.0139 |
| AGAGGGAT | -0.304 |
| AGGGAGGG | -0.0143 |
| GGCTATCA | -0.0816 |
| CTCTCGAA | -0.197 |
| GTGAACTA | -0.0747 |
| CGGAAGAG | 0.365 |
| GGATATGA | 0.148 |
| ACAAACTC | 0.0698 |
| AAAAATAC | 0.00079 |
| ACCTACGG | -0.0477 |
| CGTATACG | 0.0176 |
| AACTAGAC | -0.106 |
| AGCTCGAG | -9e-05 |
| GAATTTCC | 0.268 |
| ATCAGGCC | -0.0165 |
| GAGCGCAC | 0.153 |

| Sequence | PBM E-score |
| --- | --- |
| GTCATATA | -0.0478 |
| AAGTCGGA | 0.242 |
| AATCAGAT | -0.193 |
| TGCCGCCA | 0.188 |
| GAAGGAAC | 0.0934 |
| GTGCAAGA | 0.00884 |
| ACTCACAT | -0.188 |
| ATTATTCC | 0.271 |
| ACCGTTCA | 0.00427 |
| ACGCAGAC | -0.0557 |
| ATGGGTGG | -0.013 |
| ATGTGACG | -0.142 |
| GAAAGTGC | -0.118 |
| CTTTAAGA | 0.0484 |
| GAGCGACA | -0.0938 |
| GCTGAGCA | -0.0735 |
| GCCCGCCC | 0.181 |
| GTTAACCA | 0.0181 |
| CACAGTAA | 0.039 |
| CGGTATGC | -0.00571 |
| ACGGCATG | 0.0911 |
| CACCACGA | -0.0287 |
| AGACACAG | -0.0456 |
| CAGTATGA | -0.149 |
| AAAATAAT | 0.0224 |

| Sequence | PBM E-score |
| --- | --- |
| AGTAGCGA | -0.146 |
| AGTCCGGA | 0.422 |
| CCAATAAA | 0.026 |
| GACCTGTA | -0.15 |
| CTGGTTGA | -0.22 |
| GGAAGCTA | 0.229 |
| GTAGCTGA | -0.101 |
| GCACAGAC | 0.0353 |
| CGAAGGTA | 0.0358 |
| ACATTTGG | 0.0987 |
| ATAAAGGA | -0.173 |
| AAAAGAAC | -0.113 |
| CTCGATAA | 0.0888 |
| CCCCGTCG | 0.165 |
| AGACACAT | -0.111 |
| CTAGGGAC | -0.153 |
| CAGCCATA | -0.0134 |
| GTGTCTCA | -0.11 |
| CACAGAAC | -0.191 |
| AAGTCTGA | -0.365 |
| CGAGGCCG | 0.0807 |
| CCACATGG | -0.0876 |
| CACGTGTA | -0.182 |
| GACATCTA | -0.0109 |
| AGGAGAAG | -0.194 |

| Sequence | PBM E-score |
| --- | --- |
| CTTGTCAA | -0.00536 |
| AATAATAT | 0.27 |
| AGCCATTC | 0.0239 |
| AGTACGAC | -0.0634 |
| ACGCGAGC | 0.0915 |
| AGCTGTTG | -0.0549 |
| TCGAGTAA | 0.0515 |
| ATGAGAAG | -0.162 |
| AGGCGCCT | -0.17 |
| ACGGGGAT | 0.19 |
| AACGAATA | 0.0903 |
| CACCCTCG | -0.0329 |
| GCAGTAGC | -0.121 |
| TTGGAAAA | -0.141 |
| AGGCAATA | -0.155 |
| CTTGGGTC | -0.036 |
| GAGGTCCA | 0.024 |
| CAAACTGG | -0.159 |
| AAAACGAC | -0.181 |
| ATGCAGCG | -0.0518 |
| AGAATAGG | 0.0285 |
| AGAGGATA | -0.174 |
